# Source: ChEMBL document CHEMBL4888484, “Replenishing the malaria drug discovery pipeline: Screening and hit evaluation of the MMV Hit Generation Library 1 (HGL1) against asexual blood stage Plasmodium falciparum ,using a nano luciferase reporter read-out” (2022)
# In all, about 4,800 compounds went through this assay and about 420 (8.8%) showed an effect of 50% or more. The list shows a part of the results.
# Test system: Plasmodium falciparum
# Experiment: Confirmatory screen in NF54 nanoGlo assay, in single point, at 2uM, 72h
# Assay type: functional, Erythrocyte
# Settings: timepoint 72 hour
row,SMILES,% Inhibition
1,CCn1nc(CNC[C@H](C)O)c(-c2ccccc2)n1,-11%
2,CC1CCCCC1OCCN1CCCC(C2(C)NC(=O)NC2=O)C1 (stereo unspecified),-1%
3,O=C(NS(=O)(=O)c1ccc2c(c1)OCCCO2)c1cc2c(s1)CCC2,4%
4,CC1CC(C(=O)Nc2[nH]c(=O)ncc2F)CC(C)(C)C1 (stereo unspecified),92%
5,CCOc1ccccc1C(=O)Nc1c(-n2cnnc2)nn(C)c1C,2%
6,Cc1nccn1-c1cc(CNC(=O)[C@H]2CCCN(S(=O)(=O)c3cccs3)C2)ccn1,2%
7,COCCc1nc(C2(Nc3ccc(Cl)cc3)CCC2)no1,3%
8,CC1CCC(NC(=O)[C@H]2CCS(=O)(=O)C2)CC1 (stereo partly specified),-13%
9,Cc1ncc(CN(CCN(C)C)CC2CCCCC2)s1,-8%
10,O=C(NCc1noc(Cc2ccccc2)n1)c1ccno1,2%
11,OC(CNC1CCCNc2ccccc21)c1ccc(Cl)s1 (stereo unspecified),58%
12,Cc1cc(C(=O)NCc2nc3ccccc3s2)c(C)o1,-1%
13,Cn1c(=O)c2nc(N3CCOCC3)[nH]c2n(-c2ccccc2)c1=O,1%
14,CCCNC(=O)c1c(NC(=O)c2ccc3c(c2)c(C)c(C)n3Cc2ccccc2)cnn1C,-12%
15,COc1cc(=O)c(C(=O)N2CCCCCC2)nn1-c1ccc(F)c(F)c1,3%
16,Cc1noc(C)c1CN1C[C@@H]2Oc3cc(F)ccc3C(=O)N(C)[C@@H]2C1,92%
17,C[C@H](C(=O)NCC1CCN(Cc2ccccc2F)CC1)C1CCOCC1,-6%
18,Cc1cc(-c2cncc(CN3CCCCC3)c2)ccc1F,7%
19,O=C(NC1CCCC1)c1cc2ccccc2[nH]1,-7%
20,CN(c1nc2c(cnn2C)c(=O)[nH]1)C1CCCC1c1ccc(C(F)(F)F)cc1 (stereo unspecified),6%
21,Cc1cccc(C(=O)Nc2c(C#N)c(-c3ccccc3)c(-c3ccccc3)n2Cc2ccccc2)c1,3%
22,C[C@@H](CN)N(C)c1ccnc2cc(Br)cnc12,98%

row,SMILES,% Inhibition
1,Cc1nc2cc(F)ccc2cc1C(=O)N1CCN(S(=O)(=O)c2ccc(Br)cc2)CC1,0%
2,CCCN1CCN(CCCNC(=O)c2ccc(Cl)c(-n3c(C)nc4cccnc43)c2)CC1,0%
3,COc1cccc(NC(=O)Nc2ccc3c(c2)NC(=O)C(C)(C)O3)c1,-1%
4,O=C(CCc1ccc2cc[nH]c2c1)NCc1cccc(Cl)c1,0%
5,O=C(Cc1ccc(Cl)cc1Cl)N1CCc2[nH]nc(C(=O)N3CCN(c4ccccc4)CC3)c2C1,-1%
6,N[C@@H](CO)c1cccc(Br)c1,7%
7,Cc1ccc(-c2nn[nH]n2)cc1-n1cccn1,-2%
8,Cn1cc(-c2cc(-c3cnn(C)c3)n(S(=O)(=O)c3ccc(Cl)cc3)n2)cn1,-20%
9,O=C(c1cc(-c2ccncc2)on1)N1CCOC2(CCCCCC2)C1,-6%
10,CCCc1nnc(NC(=O)C(=O)OCC)s1,-6%
11,COC(=O)c1cc(Cl)cc(NC(=O)CC2CCNCC2)c1,-6%
12,FC(F)(F)c1ccc(-c2nc(Cn3ccnn3)co2)cc1,0%
13,Cc1cc(N2CCN(c3ccccn3)CC2)n2cc(-c3ccccc3)nc2n1,7%
14,CC(C)(c1ccc(F)cc1)C1(NC(=O)CCc2nccs2)CC1,-9%
15,COc1cccc(-n2c(C)cc(C(=O)N3CCNC(=O)CC3)c2C)c1,-6%
16,C1CCC(Nc2nc3nonc3nc2N2CCCCC2)CC1,1%
17,CC(Oc1ccccc1)C(=O)N1CCNC(=O)C1c1ccc(Br)cc1 (stereo unspecified),-2%
18,CC1CCCC(C)C12NC(=O)N(CN1CCN(CCOc3ccccc3Cl)CC1)C2=O (stereo unspecified),1%
19,CCOC(=O)[C@@H](OC(=O)Nc1cccc(C(F)(F)F)c1)C(F)(F)F,1%
20,O=C1[C@@H]2C[C@@H](CN2C(=O)c2cncnc2)Oc2ccccc2N1Cc1cccnc1,4%
21,Brc1cc(Br)c2nc(-c3ccc(C4CCCCC4)cc3)ccc2c1,3%
22,O=C(NCCc1cccs1)c1nn[nH]c1Nc1ccccc1F,0%

row,SMILES,% Inhibition
1,Cc1nn(C[C@H](C)/C(N)=N/O)cc1Cl,3%
2,Cn1ncc(Cl)c1C(=O)N(C1CCCCC1)C1CCCCC1,1%
3,O[C@@]1(CN2CCC(COc3ccc4c(c3)CCC4)CC2)CCCNC1,52%
4,Clc1cc(CNCCc2ccccc2)ccc1OCc1ccccc1,-6%
5,CCOC(=O)Nc1nc(C)c(-c2nc3ccccc3c(=O)n2-c2ccc(OC)cc2)s1,-4%
6,O=C(CCc1ccccc1)Nc1ccc(-n2nn[nH]c2=O)cc1,-5%
7,CN(Cc1cnn(-c2ccccc2)n1)c1ncnc2[nH]ncc12,3%
8,CCCCC(C)C(=O)N1CCC2CN(C(=O)C(F)(F)F)CC2C1 (stereo unspecified),3%
9,c1ccc(-c2nccc(-c3ccc(-n4cncn4)cc3)n2)nc1,16%
10,Cc1nn(-c2nc3ccccc3[nH]2)c(O)c1Cc1ccccc1,2%
11,c1cc(Cn2cnc3c2CCCC3)cs1,-15%
12,COc1ccc2ncc(=O)n(CCOc3ccccc3)c2c1,4%
13,CCC1(CC)CN(C(=O)c2ccn(C)c(=O)c2)c2ccccc21,2%
14,Nc1nc(N2CCN(c3ccc(F)c(Cl)c3)CC2)cc([C@H]2C[C@@H](N)C2)n1,32%
15,CCOc1cccc(COC(=O)c2cc(C#N)cn2C)n1,-3%
16,CC1(C)Cc2nc3ccccc3c(NCc3ccccc3)c2[C@@H](O)C1,44%
17,Cc1ccc([C@H](c2c[nH]c3ccccc23)N(C)C(=O)C(C)C)cc1,30%
18,CNc1nc(Nc2ccc3c(c2)OCCO3)nc2ccccc12,95%
19,COCCCNC(=O)C1CCN(c2c(C)n(-c3ccccc3)c(=O)n(CC(C)C)c2=O)CC1,-2%
20,O=C(Nc1cccc(Cl)c1)Nc1cccc(-c2cnc3n2CCC3)c1,46%
21,CC(=O)Nc1ccc(S(=O)(=O)NCc2ccc(C(=O)NC3CCC(C)CC3)cc2)cc1 (stereo unspecified),-5%
22,O=C(NC1CCCOC1)NC1CCCOc2c1ccc1ccccc21 (stereo unspecified),-3%

row,SMILES,% Inhibition
1,O=C(NC1CCCCC1)c1cc2c(Cl)ccc3c2n1CCO3,-10%
2,Cc1c2c(=O)n(-c3nc4ccccc4s3)n(Cc3ccccc3)c2cc(=O)n1Cc1ccc2c(c1)OCO2,17%
3,COCc1nncn1C1CN(C(=O)Cc2ccc(OC)c(OC)c2)C1,-9%
4,COc1ccc(N2CCN(Cc3c(O)nc(O)c(C#N)c3C)CC2)cc1,-3%
5,Cc1c(-c2ccccc2Br)[nH]c2cc3c(cc2c1=O)OCCO3,-13%
6,O=C(N[C@@H](N1CCCC1)C(Cl)(Cl)Cl)c1ccc(Cl)cc1,-13%
7,Brc1ccc2c(c1)c1cc(Br)cc(Br)c1n2CN1CCOCC1,-17%
8,CC(=O)N(C1CCOCC1)[C@H]1CCCN(C(=O)Cc2cccnc2)C1,-13%
9,CCCCn1c(N)c(N(Cc2ccccc2OC)C(=O)c2ccoc2C)c(=O)[nH]c1=O,-5%
10,O=C(Cc1ccc(F)cc1F)N1CCc2[nH]nc(C(=O)N3CCN(c4ccccc4)CC3)c2C1,3%
11,CN(C)CCCNc1nc(N2CCCC2)c2c(c1C#N)CCN(C)C2,1%
12,C[C@H](Nc1nc(N2CCCCC2)nc2ccccc12)c1ccccc1,-1%
13,CC(C)(C)OC(=O)Cn1cc(CO)nn1,1%
14,COc1cccc(-c2noc3nc(C)cc(C(=O)NCCCn4ccc(C)n4)c23)c1,5%
15,c1coc([C@H](CNC2CCCC2)N2CCCC2)c1,-4%
16,CCCOc1ccc(Cl)c(CN2OCC(C)(C)C2=O)c1,-7%
17,COc1cc2c(cc1Cl)-n1cccc1C1(CCNCC1)N2,-8%
18,C[C@H]1CCCN(C(=O)CNC(=O)Cc2ccccc2)CC1,-9%
19,O=C1NC(=O)[C@@H]2CN(C(=O)[C@@H]3CCO[C@H]3c3ccc(Cl)c(F)c3)C[C@H]12,2%
20,COc1cccc(NC(=O)N2C[C@@H]3C[C@H](NS(C)(=O)=O)[C@H]2C3)c1,0%
21,C[C@@H](CO)NC(=O)Nc1cc(Br)c(F)cc1Cl,-3%
22,Cc1cc(C)n(CCC(=O)N2CC[C@H](c3nc(C4CCOCC4)no3)C2)n1,-1%

row,SMILES,% Inhibition
1,CCOC(=O)[C@@H]1C(=O)Nc2cc(OC)ccc21,6%
2,O=C(O)Cc1cccc(NC(=O)C2C3Cc4ccccc4C32)c1 (stereo unspecified),-1%
3,Cc1cc(-c2ccccc2)c(C#N)c(=O)n1C(=O)c1ccc(C#N)cc1,3%
4,CC(C)NC(=O)CN(C)S(=O)(=O)c1ccc(Br)cc1,-15%
5,CCN(CC)c1ccc(C(=O)C(F)(F)F)c(O)c1,-8%
6,C=CCOCC(O)CN(Cc1c(-c2ccccc2)noc1N1CCCCC1C)CC1CCCO1 (stereo unspecified),4%
7,CCC1(C)NC(=O)N(CC(O)CN2C(=O)c3ccccc3C2=O)C1=O (stereo unspecified),-5%
8,CCc1cccc2c(C3=CCN(C(=O)NC[C@H]4COCCO4)CC3)c[nH]c12,3%
9,Cc1cc(C)cc(-n2cc(C(=O)NCCCc3ccccc3)nn2)c1,0%
10,Cc1cc(Nc2ccc(CN3CCCC3=O)cc2)nc(C2CC2)n1,-7%
11,CCOc1ccc2c(n1)CCN(C(=O)c1ccsc1)C2,-12%
12,CCN1C(=O)Cc2cc(NC(=O)c3ccc(Br)o3)ccc21,-5%
13,Cc1nc(CN(C)C(=O)c2ccccc2Nc2cccc(C)c2C)cs1,0%
14,OC(CC(Nc1ccc(Cl)cc1)c1ccccc1)c1ccccc1 (stereo unspecified),-8%
15,Cc1occc1C(=O)NCCCn1ncc2c(C)cccc21,0%
16,COc1ccc(OC)c(NC(=O)CN2CCc3[nH]c4ccc(F)cc4c(=O)c3C2)c1,72%
17,CN(C)c1nc(CN2CCC(CO)CC2)ns1,1%
18,CC(C)(C)c1ccc(NC(=O)c2ccnnc2)c(O)c1,-8%
